# ± gives the standard deviation of the averaged measurements. The list shows a part of the results.
# Test system: PfAP2-EXP AP2 domain (GST-tagged)
# Experiment: gcPBM binding intensity (ln(normalized median fluorescence intensity)); higher = stronger DNA binding
# How it was run: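 The binding buffer was 1× PBS containing 1% milk, 0.2 mg/ml BSA, 0.5% salmon testes DNA and 0.03% Triton X-100. In it, GST-tagged P. falciparum DNA-binding domains expressed in E. coli were applied for 1 h to an Agilent 4 × 180k array of primer-extended double-stranded 36-bp intergenic genomic probes plus negative controls. Binding intensity, read with Alexa488 anti-GST antibody and a 488 nm scan, is the highest Masliner-normalised natural-log median intensity across replicate spots of either probe orientation.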
row,Sequence,gcPBM binding intensity (ln)
1,TTATGTTATATAAAAAGTACAAATTTTTTTTAATTA [XGTACX_site3435],8.21 ± 0.64
2,ATAATATAAACATACACACACACATCTATATTTATA [CACACA_site7381],8.52 ± 0.45
3,TATAAATAGATATATACACACATTTTTAATGATAAA [CACACA_site7299],8.21 ± 0.4
4,AAAAAAAAAAGACACACACACAATAGTATATAAATC [CACACA_site6579],8.72 ± 0.48
5,TATATATATATATTACGTTTTAAATATACTAATCTT [CACACA_negctrl_site32],10 ± 0.42
6,TTTTTATTTTTTCAAGTGCATATTTTTGGCTTCTTA,8.59 ± 0.24
7,TAAATTTATATATAGGTGCGCAATTTGATAATAGTT [GTGCAC_site9783],8.99 ± 0.35
8,CTTTTTCCTTTATATTGTACATAATTAAAGATAATA [XGTACX_site7014],8.64 ± 0.52
9,AAAAAAAAAAAAAATACACACATATATATATATATA [CACACA_site85],10.1 ± 0.34
10,TAAATACAGACATATACACACATATATATATATATA [CACACA_site4382],10.1 ± 0.52
11,ATGTATATGTTTTGTTGTACAAGTATTTTATATCTT [XGTACX_site3588],8.91 ± 0.34
12,TTTCAATTTATCAGTGTGCACAAAAATAAAATAAAA,8.965 ± 0.049
13,AATAAAAATATAGGCACACATATTAAAATGAACTTA [CACACA_site830],8.53 ± 0.42
14,TAAAGATGTATTTATTCACACATCTCATATAATGAA [CACACA_site5229],8.11 ± 0.31
15,TTATGTATCCTTATAAGAAAAAAAAAAAAATTCTCT [CACACA_negctrl_site1183],8.19 ± 0.55
16,TGAATTTAGATATATACACACAAAAGTAAATACAAT [CACACA_site5548],8.56 ± 0.63
17,AGTAGTCTGGAGAAAAGTACACAGTATCTGGTAACC [XGTACX_site2035],8.54 ± 0.4
18,GAATATTAAACAAACACACACACATATATATATATA [CACACA_site3382],10.1 ± 0.32
19,TTTAAATATATTCAATCACACACATTCGTTTTTTTT [CACACA_site7962],8.59 ± 0.46
20,AATATATACATACATACATGCATACATATATATAAC [TGCATGCA_site371],8.73 ± 0.23
21,GTTTATTGATTTATTTGTACTTATATATATATTTCA [XGTACX_site5098],8.99 ± 0.44
22,GTATAAAAATTATATACACACAACAGAATTACATAT [CACACA_site133],8.69 ± 0.44
23,TACCTATATACATACACACACATATAACCAATGTAG [CACACA_site7096],8.71 ± 0.53

row,Sequence,gcPBM binding intensity (ln)
1,AGAAGATTAAAAATTGCACACAAAAATATATTTTCT [CACACA_site8359],8.36 ± 0.35
2,TAATAAATAAAAACATGTACATATATACATATATGT [XGTACX_site485],8.6 ± 0.2
3,AAAGACTTTTTATGAGCACACACATATATTATGGAG [CACACA_site8254],8.55 ± 0.3
4,GATATATAGGTATTTACACACAATGTGAGATCTATA [CACACA_site7575],8.5 ± 0.41
5,ATGATTATACAAAATATACACACGTGGACACAAATA [CACACA_site8304],9.1 ± 0.33
6,TGATAATAAGCATACACACACACACTAAAAAAAAAA [CACACA_site6478],8.65 ± 0.56
7,TTTCTATAATATATATGTACATATATAATATGTCGT [XGTACX_site3676],8.55 ± 0.42
8,AGATAAAATAAATACACACACATAAATACGTACAAA [CACACA_site4739],9.04 ± 0.33
9,TATGGGGAACTATAATGTACGTATTCCTCATATATA [XGTACX_site338],8.69 ± 0.33
10,ATTAAAATAGAAAAAAAAAAAAAAAAAAAAAAAAAA [CACACA_negctrl_site1117],8.05 ± 0.45
11,GATGATACACAGGTGTTGCACTTAAATGCAGTTCTT [GTGCAC_site9627],8.69 ± 0.29
12,TTTTCAAAATGTTGTACACACAAAAAAAAAAAAAAA [CACACA_site1550],8.45 ± 0.63
13,TAAATTTTGTTTAGCACACACACATACATACATACA [CACACA_site3155],9.15 ± 0.18
14,TTGTATTGTATATGCACACATAGAACACTTTTTTTT [CACACA_site4133],8.62 ± 0.13
15,TAATCATTTTTAAATTGTACAATTTATATAATAAGT [XGTACX_site6081],8.5 ± 0.26
16,TTGATATACTATGACACATGCAAATAAAACATTATA [TGCATGCA_site535],8.64 ± 0.44
17,TATATCTGTATCATTACACACATGTATACTTATTTG [CACACA_site6134],8.74 ± 0.43
18,TATTTTTTAAGTGAACATTTGTTATTATATTCTTAT [GTGCAC_negctrl_site172],8.48 ± 0.41
19,CTATATATTTTTCATTGTACACAAATTAAAGAAAAA [XGTACX_site8385],8.48 ± 0.18
20,TTTTTTTATAAATTCACACAAAATATAATATTAAAA [CACACA_site4766],8.3 ± 0.42
21,AATGTCATCATATTCATATATATTTATTTCTTTTTG [GTGCAC_negctrl_site500],8.53 ± 0.53
22,ATGATGGAATATTCTACACACAATTAATAAACAAAC [CACACA_site1045],9.05 ± 0.79
23,ATATAATCCTTTCAAACACACAAAATATAATTAATA [CACACA_site1829],8.54 ± 0.48

row,Sequence,gcPBM binding intensity (ln)
1,ATAAATAATAAGGTTACAACAAACACACAAAGGAAT [XGTACX_negctrl_site611],9.2 ± 0.45
2,GGTTATAACCCACATGCACACGTAAATAAATATTAT [CACACA_site5992],9.04 ± 0.47
3,TGTCCAATTTATTGTGCACACCTCAAAAGTGGGTAA [CACACA_site3826],8.84 ± 0.18
4,TAAAAAAAAAAGTATACACACTTCTTAATGTCAACA [CACACA_site4818],8.13 ± 0.49
5,CATATATATATATGTACACACATTAATAAAAAAAAA [CACACA_site3230],8.53 ± 0.5
6,GTTTAACTGTTTTATACACACAATGTATACAATAAA [CACACA_site2959],8.73 ± 0.42
7,AATCTGATCTTTTAAAGTACACAAAAAAAAAAAAAA [XGTACX_site115],8.24 ± 0.56
8,AGGTTATAAATAAATACACACATACAAAAATATGAC [CACACA_site4773],8.74 ± 0.34
9,AAAAAAAAAAAAAAAAGTACGTATCAAAGCATCAAA [XGTACX_site880],8.79 ± 0.43
10,AATGAACACCTAAAATGTACGTACAAATATATTTTA [XGTACX_site7067],8.83 ± 0.49
11,TTTGAGTGCACATACACACAGACATACATTTAAATA [CACACA_site3403],9.52 ± 0.64
12,AATGAATAAATAAACACACACACATATATAAATATG [CACACA_site6160],8.72 ± 0.51
13,AAAACAAACAGACACACACACATATATATATATATA [CACACA_site3655],10.3 ± 0.21
14,ATGTTTAATTTTTTTTTGTCCCTATAGAAGTGTCAA [CACACA_negctrl_site1103],8.56 ± 0.47
15,TTTAAAATTTTTTTTTTTTTTTTTTTTTTTTTTTAT [TGCATGCA_negctrl_site213],7.82 ± 0.34
16,ATATAAATATGTTCTGCACACAAATAAGTGTTTGAA [CACACA_site9291],8.44 ± 0.29
17,ATAACCTAATAATACACACACATGAATATATAGAAT [CACACA_site963],8.69 ± 0.42
18,TAATATATATTATTATGTACATATATTGATTCCTTG [XGTACX_site6830],8.93 ± 0.38
19,TATTTATTAATATGTACACACATCAACCATATTAAC [CACACA_site7001],8.77 ± 0.33
20,TTCTTATATATATACACACACAAAATATCTACAATG [CACACA_site736],8.62 ± 0.51
21,CCAAAATACATTAAACGTACATGTCCTAATAAGATA [XGTACX_site21],8.81 ± 0.57
22,TTGTTTTTATAAATATTATTACAATGAAAAAAAAAA [TGCATGCA_negctrl_site185],8.38 ± 0.59
23,TGTTTAATCACATGTTTGCACTTTCCTTTTGTAAAT [GTGCAC_site9893],9.06 ± 0.39

row,Sequence,gcPBM binding intensity (ln)
1,AATTATTCTATATATTGTACATGTTTGTTTTTTTTT [XGTACX_site3130],8.82 ± 0.39
2,ATATATAAATATATATGTACACACATATACATGTTG [XGTACX_site6653],8.4 ± 0.26
3,TGATTCTGTCATGGTGCACACCAGAACCATTATAAA [CACACA_site1965],9.29 ± 0.61
4,TCTTAAAATCGGAAATGAAATAAAGTTTACAATATG [TGCATGCA_negctrl_site553],8.4 ± 0.38
5,TTTTCATTTATGTATATATTTATTTTGATTTAATGT [GTGCAC_negctrl_site607],8.31 ± 0.3
6,AAAATTATAAATCTTGCACACAAAAAAAATAATAAA [CACACA_site8771],8.37 ± 0.38
7,TAAATATATTCAATCACACACATTCGTTTTTTTTTT [CACACA_site234],8.54 ± 0.45
8,AATTATTTTATGTGAGGTACACCACACATGAAGGGG [XGTACX_site8450],9.36 ± 0.44
9,TATTGTTATGTCGTTATTAACTTTCTTTAATTAATT [CACACA_negctrl_site174],8.95 ± 0.29
10,AAATATTCATAGTATACACACATTTATATATAATCA [CACACA_site771],8.46 ± 0.4
11,TGAAAGTTCAATAATTGTACATGTGGAAATTCATAC [XGTACX_site1378],8.94 ± 0.28
12,ATATTTCGTCTAAAAAGTACACAACAATAAAAAGTA [XGTACX_site6668],8.96 ± 0.35
13,AAAAAACACAGACACACACACATATACATACATACA [CACACA_site2666],9 ± 0.27
14,TTAGGTTTATACACTACACACATTATTCATAAAAAA [CACACA_site871],8.43 ± 0.37
15,TTTTTTAAATAATATTGTACAAAAAATGTATAAATA [XGTACX_site3010],8.49 ± 0.37
16,AAGTGTATACAGAAGAGTACAAACAATTTTTTTCTT [XGTACX_site7387],8.55 ± 0.54
17,TATATATATTTAAGGTGTACATAAATAACAAAATAT [XGTACX_site2641],8.86 ± 0.4
18,ATTTTTTTTTCTTTCGCACACGTGAAAGAATTTCTA [CACACA_site2052],8.59 ± 0.3
19,TTAAATTAAAACAAATGTACAAAGTGCATATTTTTT [XGTACX_site8143],8.29 ± 0.31
20,ATAATTTAATACTAGTGTACAGAAAAAAAAAAAAAA [XGTACX_site6756],8.55 ± 0.42

# Reference: the supplement of paper PMC11417369
